Assay results published in PubChem BioAssay AID488969 (Vanderbilt High Throughput Screening Facility, 2010).
Whole data set: some 110,000 compounds, median “z-score” near -0.1, cut for the highest 2% near 2. This is one part of the list.

biological target: Metabotropic glutamate receptor 8 (Rattus norvegicus) (UniProt P70579); test: mGluR8 Gi/Go-coupled signaling modulation – cell-based, rat, thallium flux, HTS, primary screen (AID 488969); conditions: HEK293 rat mGluR8, GIRK (G protein-gated inwardly rectifying potassium channel) thallium flux, FluoZin2; at 10 µM; stronger effect = higher value; submaximal glutamate (EC20) added with thallium
Chain of UniProt P70579 (P70579 whole entry, looked up): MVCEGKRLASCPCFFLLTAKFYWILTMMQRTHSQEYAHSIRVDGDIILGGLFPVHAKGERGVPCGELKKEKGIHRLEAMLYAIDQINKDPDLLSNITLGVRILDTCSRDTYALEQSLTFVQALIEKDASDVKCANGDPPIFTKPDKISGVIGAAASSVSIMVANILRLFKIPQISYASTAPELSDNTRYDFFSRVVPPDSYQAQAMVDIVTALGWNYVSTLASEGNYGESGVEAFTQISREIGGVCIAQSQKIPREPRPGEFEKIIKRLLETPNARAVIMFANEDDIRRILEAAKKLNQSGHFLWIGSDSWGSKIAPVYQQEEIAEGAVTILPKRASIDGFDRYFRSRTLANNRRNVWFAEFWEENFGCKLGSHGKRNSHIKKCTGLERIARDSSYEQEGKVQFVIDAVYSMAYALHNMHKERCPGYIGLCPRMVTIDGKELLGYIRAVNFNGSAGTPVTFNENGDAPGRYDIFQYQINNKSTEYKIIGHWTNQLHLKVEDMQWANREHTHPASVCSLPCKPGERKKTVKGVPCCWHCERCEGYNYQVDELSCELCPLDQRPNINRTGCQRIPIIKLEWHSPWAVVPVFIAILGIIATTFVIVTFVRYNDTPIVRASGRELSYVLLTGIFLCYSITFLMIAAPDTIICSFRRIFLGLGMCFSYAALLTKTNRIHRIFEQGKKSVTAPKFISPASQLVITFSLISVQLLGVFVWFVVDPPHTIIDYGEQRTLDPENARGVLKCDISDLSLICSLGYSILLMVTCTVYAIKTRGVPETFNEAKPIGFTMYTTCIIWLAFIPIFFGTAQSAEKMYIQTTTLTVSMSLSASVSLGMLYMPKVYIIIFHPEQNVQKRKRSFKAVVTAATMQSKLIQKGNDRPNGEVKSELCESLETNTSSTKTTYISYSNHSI

| SMILES | z-score |
| --- | --- |
| CCC(=O)NC(=S)Nc1ccc(NC(=O)COc2ccc(Cl)c(C)c2)cc1 | -0.0852 |
| C/C=C(\C)c1nnc(NC(=O)C(C)C)s1 | 0.0139 |
| CCC(C)[C@H](NC(=O)Nc1ccc(C(C)=O)cc1)C(=O)OC (some centres not stated) | 0.195 |
| COC(=O)c1c(C)[nH]c(C(=O)/C=C/c2ccccc2)c1C | -0.0133 |
| O=C(Cc1n[nH]c(=O)c2ccccc12)Nc1ccc(-c2nnc3n2CCCCC3)cc1 | -0.134 |
| O=C(COc1cc(Cl)c(Cl)cc1Cl)Nn1cnnc1 | 0.298 |
| Cc1ccc(C)c(NC(=S)NC2CC3CCCC(C2)N3CC(C)C)c1 (configuration not stated) | -0.965 |
| Cc1ccc(S(=O)(=O)N2CCCC2C(=O)Nc2cc(C)on2)cc1 (configuration not stated) | 0.4 |
| Cc1nc([N+](=O)[O-])nn1C12CC3CC(CC(Cl)(C3)C1)C2 | -0.00977 |
| N#Cc1c2n(c3c(=O)n(CC(=O)c4ccc(Br)cc4)cnc13)CCCC2 | -0.601 |
| CCCCNC(=O)c1ccccc1NC(=O)c1ccccc1N(C)S(C)(=O)=O | 0.2 |
| CCOC(=O)c1c(NC(=O)CSc2nnc(Cc3ccccc3)o2)sc(C)c1C | -0.364 |
| CN1C(=O)SC(Nc2cccc3ccccc23)C1=O (configuration not stated) | -0.0592 |
| O=C(NCC(c1cccs1)N1CCOCC1)c1ccc(Cl)c([N+](=O)[O-])c1 (configuration not stated) | -0.269 |
| COCCN(C(=O)C(C)C)c1nnc(-c2ccc(C)cc2)s1 | -0.134 |
| Cc1cccc(NC(=O)CSc2nc3[nH]ncc3c(=O)[nH]2)c1C | -0.205 |
| COc1ccc(CC(=O)N2CCNC2=O)cc1 | -0.761 |
| CCOC(=O)c1cn(-c2ccc([N+](=O)[O-])cc2)c2cc(Cl)c([N+](=O)[O-])cc2c1=O | -0.289 |
| Cc1ccc(SCc2noc(C(=O)NC(C)C)c2C(=O)O)cc1C | -0.218 |
| Cc1ccc(/C=C/C(=O)N2CCN(S(=O)(=O)c3ccc(C)c(C)c3)CC2)o1 | 0.583 |
| CC1CCCN(CC(O)COc2ccc(Cl)cc2)C1 (configuration not stated) | 0.149 |
| COc1ccccc1N1CCN(CC(O)COc2c(OC)cccc2OC)CC1 (configuration not stated) | 0.862 |
| Cc1cc(Nc2ccccc2)c2c([N+](=O)[O-])c(C)cc(C)c2n1 | 0.0133 |

| SMILES | z-score |
| --- | --- |
| COc1ccc(C)cc1-n1nnnc1SCc1cn2ccsc2n1 | -0.447 |
| CCOc1cc(C(=O)Nc2ccc([N+](=O)[O-])cn2)cc(OCC)c1OCC | -0.113 |
| O=C(CN1C(=O)NC2(CCCc3ccccc32)C1=O)N1CCN(C(=O)c2ccco2)CC1 (configuration not stated) | -0.336 |
| FC(F)(F)c1cccc(Oc2nc(-c3ccccc3)nnc2C(F)(F)F)c1 | -0.0104 |
| Cc1cc(C)cc(N=C2NC(=O)/C(=C/c3cccs3)S2)c1 | 0.141 |
| O=[N+]([O-])c1cccc(C2=NCCS2)c1 | -0.057 |
| CCOC(=O)c1nnn(-c2nonc2NC(C)=O)c1C | 0.102 |
| COc1ccccc1N1CCN(CCC(=O)Nc2ccc3c(c2)OCO3)CC1 | -0.0155 |
| O=C(Nc1cccc(S(=O)(=O)N2CCOCC2)c1)c1cn(-c2ccccc2)nc1-c1ccc(F)cc1 | -0.681 |
| CCOc1ccc(CCNC(=O)CSc2cc(=O)n(C)c3cc(Cl)ccc23)cc1OCC | -0.423 |
| COc1ccc(NC(=O)CCN2CCN(S(=O)(=O)c3ccc(Cl)cc3)CC2)cc1 | -0.0748 |
| CN1CCN(Cn2cc(/C=C/C(=O)c3ccccc3)c3ccccc32)CC1 | -0.0549 |
| CCOC(=O)C(C(=O)OCC)C(Nc1ccccc1)c1ccccc1 (configuration not stated) | -0.332 |
| CC(=O)c1c(C)[nH]c(C(=O)OCC(=O)Nc2sc3c(c2C#N)CCCC3)c1C | -0.0673 |
| O=S(=O)(c1ccc(Nc2ccc3c(c2)OCO3)nc1)N1CCOCC1 | 2.28 |
| Cc1cc(=O)oc2c3c4c(cc12)OCCN4CCC3 | -0.597 |
| O=C(CN1C(=O)CSCC1=O)NCc1ccc(F)cc1 | 0.198 |
| Cc1ccc(S(=O)(=O)Nc2ccc3c(c2)nc(CN2CCCC2)n3C)cc1 | -0.235 |
| COc1cccc(C(c2nnnn2C(C)(C)C)N2CCN(C3CCCCC3)CC2)c1OC (configuration not stated) | 0.0316 |
| Cc1ccc2[nH]c3c(c2c1)CN(C(=O)CN(C)CC1OCCO1)CC3 | -0.00997 |
| COc1ccccc1NC1=C(C)C(=O)CC1 | -0.466 |
| COCCN1Cc2cccc(C(=O)Nc3cccnc3)c2C1=O | 0.234 |
| C=CCc1c(C)nc(C)nc1N/N=C/c1ccc(F)cc1 | -0.164 |

| SMILES | z-score |
| --- | --- |
| O=S(=O)(/N=C(/c1ccc(F)cc1)N1CCCCC1)c1ccc(Cl)cc1 | -0.662 |
| COc1ccc(CNCCC(c2ccccc2)c2ccc3c(c2)OCO3)cc1 (configuration not stated) | 2.28 |
| Cn1c(/C=C/c2ccc([N+](=O)[O-])o2)nc2ccccc2c1=O | -0.214 |
| Cc1cccc(Nc2cc(=O)[nH]c(=O)[nH]2)c1C | -0.0172 |
| O=C(NC1CCN(C(=S)NCc2ccco2)CC1)NC12CC3CC(CC(C3)C1)C2 | -0.117 |
| O=c1c2ccccc2c(/C=N/n2cnnc2)c(O)n1-c1ccccc1 | -0.633 |
| COc1cc(C2C(C#N)=C(N)OC3=C2C(=O)CCC3)cc(OC)c1OC(=O)N1CCOCC1 (configuration not stated) | 0.128 |
| Cn1c(/C(C#N)=N/O)nc2ccccc21 | -0.159 |
| Cn1c2ccccc2c(=O)c2c(=O)n(C3CCCCCC3)c(C3CCCCC3)nc21 | -0.175 |
| COc1ccccc1-c1c(C)nn2c(N3CCCCCC3)cc(C)nc12 | -0.698 |
| COc1ccc(-n2c(C)cc(C=O)c2C)cc1Cl | -0.544 |
| COc1ccc(OCCSc2ncnc3nc[nH]c23)cc1 | 0.421 |
| COC(=O)CN(C(=S)Nc1ccc(F)cc1)C1CC(=O)N(c2ccc(OC)cc2)C1=O (configuration not stated) | -0.133 |
| Cc1cc(C)nc(SC2CCCCC2O)n1 (configuration not stated) | 0.972 |
| CCCCN(CC)C(=O)c1cc2cc3ccc(OC)cc3nc2o1 | -0.853 |
| O=[N+]([O-])c1ccc(CN2CCOCCOCCOCC2)cc1 | -0.132 |
| CC(=O)Nc1nc2c(F)cccc2s1 | 0.033 |
| CC(C)Oc1ccc(CNC(=O)CC(c2ccccc2)c2cc(Cl)ccc2O)cc1 (configuration not stated) | 0.0536 |
| Cc1nn(-c2ccccc2)c(N)c1C(O)(CSc1nccn1C)C(F)(F)F (configuration not stated) | -0.135 |
| Cc1cccc(NC(=O)c2cc(-c3ccco3)nc3ccccc23)n1 | -0.158 |
| CCN1CCN(C(C(=O)NC2CCCCC2)c2ccc(Cl)cc2)CC1 (configuration not stated) | 0.3 |
| CCC(C)C(=O)Nc1nc2c(s1)C(=O)CC(C)(C)C2 (configuration not stated) | 0.167 |
| CC1CCN(CCCCOc2ccccc2[N+](=O)[O-])CC1 | 0.0186 |

| SMILES | z-score |
| --- | --- |
| CCCCCCCCC(=O)N/N=C/c1ccccn1 | 1.06 |
| NC(=O)c1ccccc1NC(=O)c1ccccc1S(=O)(=O)c1ccccc1[N+](=O)[O-] | -0.297 |
| COC(=O)c1cc(OC)c(OC)cc1NC(=O)CN1CCOCC1 | 0.174 |
| CCOC(=O)c1c(NC(=O)C2COc3ccccc3O2)sc2c1CC(C)(C)NC2(C)C (configuration not stated) | 1.29 |
| CC(C)C1OC2c3cccc4cccc(c34)C2N1c1ccccc1 (configuration not stated) | -0.0175 |
| Cn1cccc1CC(=O)NNC(=S)Nc1ccc(F)cc1 | -0.244 |
| CC(C)CNc1nc(=S)nc(N(C)C)[nH]1 | -0.092 |
| CC1(C)CC(=O)CC(C)(C)N1OC(=O)c1ccco1 | 0.00851 |
| O=C(NCc1ccc(F)cc1)c1c2c(nc3ccccc13)CCN(Cc1ccccc1)C2 | -0.183 |
| CC12CN3CC(C)(CN(C1)C3c1ccc3ccccc3c1O)C2=O (configuration not stated) | 0.664 |
| COc1ccccc1OCC(=O)Nc1ccccc1C(=O)NCc1ccco1 | 0.161 |
| CC(C)CNC(=O)c1ccc(NC(=O)c2ccccc2[N+](=O)[O-])cc1 | -0.341 |
| COc1cccc(NC(=O)Cc2ccc(C)cc2)c1 | 0.445 |
| O=C(Nc1ccccc1)C1CC(=O)N(c2ccc3c4c(cccc24)CC3)C1 (configuration not stated) | -0.104 |
| COC(=O)C(C(=O)OC)C(C[N+](=O)[O-])c1ccc(OC)cc1 (configuration not stated) | -0.212 |
| CCCC/C(C)=N/NC(=O)Nc1ccccc1 | -0.105 |
| C=CCNC(=O)c1nn2cccnc2c1Cl | -0.068 |
| O=C1C2C3C=CC(C3)C2C(=O)N1c1n[nH]c(-c2cccnc2)n1 (configuration not stated) | -0.0444 |
| Cc1cc(O)c(/C=N/Nc2cccc(Cl)c2)c(=O)o1 | -0.0467 |
| O=C(NCc1cccnc1)/C(=C\c1ccc(-c2cccc(Cl)c2)o1)S(=O)(=O)c1ccccc1 | -0.109 |
| CCCC1C(c2ccco2)NC(c2ccco2)CC1(C)O (configuration not stated) | 0.739 |
| Cn1ncc(Cl)c1C(=O)Nc1ccncc1 | 0.243 |
| CCOC(=O)/C(C#N)=C1\Nc2ccccc2N=C1N(CC(C)C)CC(C)C | -1.44 |

| SMILES | z-score |
| --- | --- |
| CC(=O)N(CCCCN1C(=O)c2ccccc2C1=O)c1ccc(C)cc1 | -0.0897 |
| CCOC(=O)CC(=O)Nc1nc2ccccc2s1 | -0.0103 |
| O=C(Nc1ccccc1N1CCN(c2ccc(F)cc2)CC1)C12CC3CC(CC(C3)C1)C2 | -1.97 |
| CCCc1nnc(SCC(=O)N2C(C)CCCC2C)n1CCCOC (configuration not stated) | -0.354 |
| CC1CCCN(C(=O)c2sc3cc([N+](=O)[O-])ccc3c2Cl)C1 (configuration not stated) | -0.382 |
| C(=N\N1CCN(C2c3ccccc3-c3ccccc32)CC1)/c1cccs1 | -0.185 |
| CCOc1ccc2[nH]c(=O)c(C(c3nnnn3C3CCCCC3)N3CCN(CC)CC3)cc2c1 (configuration not stated) | 0.408 |
| CCOC(=O)c1nnc(-c2ccccc2)nc1NC | -0.246 |
| COc1ccc(C(=O)COC(=O)c2ccco2)cc1 | 0.472 |
| COc1ccc(OC)c(S(=O)(=O)N2c3ccccc3CC2C)c1 (configuration not stated) | -0.681 |
| Cc1ccc(NC(=O)c2ccc3nc[nH]c3c2)cc1C | 0.551 |
| O=C(NCCc1ccc2c(c1)OCCO2)c1ccc(F)cc1 | -0.24 |
| O=C(c1cc(-c2cccs2)nc2ccccc12)N1CCN(S(=O)(=O)c2ccccc2)CC1 | -0.231 |
| O=C(Cn1c(C(F)(F)F)nc2ccccc21)NCCCN1CCOCC1 | -0.217 |
| Cc1c(N=Cc2ccncc2)c(=O)n(-c2ccccc2)n1C | -0.041 |
| CCOc1ccc(-c2nnn(CC(=O)NCc3ccc(OC)cc3)n2)cc1OCC | -0.504 |
| CCN(C(=O)c1ccc2c(OC)n(CC)nc2c1)c1ccc(OC)cc1 | 0.214 |
| CCn1c(Cc2ccccc2)nnc1SCc1cccc(C(=O)O)c1 | -0.452 |
| Cc1cc(C)c(-c2c(O)c3c(n(C)c2=O)CC(C)(C)CC3=O)c(C)c1 | 0.144 |
| O=C(Nc1ccc(Cl)c(Cl)c1)c1ccncc1 | -0.0419 |
